# PubChem BioAssay AID1347073 (National Center for Advancing Translational Sciences (NCATS), 2019)
# Screen size: about 45,000 compounds; about 200 (0.44%) were called active. Inconclusive results (about 7%) are left out. The call rests on the fitted dose curve; in most records, active means well fitted activation curve with a large enough effect; inconclusive means small, poorly fitted or top-dose-only effect; inactive means no such curve, though single readings can be large or run the other way. Some of the results follow.
# Assay: qHTS of TDP-43 Inhibitors: NCGC Sytravon Library Screen; further: nearly all actives have a fitted effect of over 55% in size; on growth rescue (activation): 0% is about no effect
# Conditions: yeast TDP-43 toxicity rescue, BacTiter-Glo growth, 24 h; series mostly up to 46.1 µM; growth rescue (activation): at the top concentration
# Summary of the method: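 TDP-43-expressing yeast, pregrown in raffinose, seeded at OD600 0.02 in galactose medium with compound for 24 hr at 30 deg C. Growth read by BacTiter-Glo luminescence, so rescue of toxicity appears as activation.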
# Potency means the concentration at half of the fitted maximal effect.
Structure (SMILES),growth rescue (activation),Potency
Cc1cccc(/C=N/NC(=O)Cc2cccs2)c1,inactive: 20.5%,–
CC(C)c1nnc(SCC(=O)NC(C)(C)C)n1C,inactive: -7.76%,–
COC(=O)COc1ccc(/C=N/NC(=O)CN(c2ccccc2OC)S(=O)(=O)c2ccccc2)cc1,inactive: 4.33%,–
COc1ccc(-c2cc(C(=O)Oc3ccc(Cl)cc3)c3ccccc3n2)cc1,inactive: -5.56%,–
Cc1cccc(C(C)C)c1NC(=O)CSc1cccc[n+]1[O-],inactive: -2.56%,–
CC(=O)OCCCCON1C(=O)c2ccccc2C1=O,inactive: 19.4%,–
COc1ccc(-c2[nH]ncc2CN(C)CCCN2CCOCC2)cc1F,inactive: -17.5%,–
COc1ccc(-c2csc(C3=C(O)CN(C(C)C)C3=N)n2)cc1OC,inactive: -14.6%,–
CN(C(=O)CSc1nc2ccccc2c(=O)n1-c1ccc(F)cc1F)C1CCS(=O)(=O)C1 (stereo not drawn),inactive: 33.2%,–
COc1ccccc1-c1nnc(SC/C(O)=C(\C#N)c2nc3ccccc3[nH]2)n1C1CCCCC1,inactive: 6.13%,–
O=S(=O)(Nc1ccc(Br)cn1)c1cccs1,inactive: 14.7%,–
Cc1cc(Nc2cccc(F)c2)nc(NCc2ccccc2)n1,inactive: 8.83%,–
CCOc1ccc(NCc2cccn2-c2nnc(N3CCC(C(=O)NC(C)c4ccccc4)CC3)s2)cc1 (stereo not drawn),inactive: 5.35%,–
CN(C)c1ccc(P(=O)(OCc2ccccc2)C(O)c2ccccc2F)cc1 (stereo not drawn),inactive: 6.43%,–
CC(=O)c1ccc(NC(=S)N2CCC(O)CC2)cc1,inactive: 11.6%,–
COc1ccc(S(=O)(=O)N2CC(C)N(C(=O)N(C)C)C2C)cc1 (stereo not drawn),inactive: 14.8%,–
COc1ccc(CCNC(=O)CSCc2ccc([N+](=O)[O-])cc2)cc1OC,inactive: -1.66%,–
Cc1ccc(NC(=O)CN(C)S(=O)(=O)c2cnc[nH]2)cc1C,inactive: -1.68%,–
CCCCN(C(=O)Cc1cccc(F)c1)c1c(N)n(CCC)c(=O)[nH]c1=O,inactive: 11.3%,–
O=C(c1nc2ccc(Cl)cn2c1CNCC[C@@H]1C[C@@H]2C=C[C@H]1C2)N1CCCCCCC1,inactive: 11%,–
COc1ccc(N2C(=NC(=O)c3ccccc3)SC3CS(=O)(=O)CC32)cc1 (stereo not drawn),inactive: -16.4%,–
Cc1cc(C)nc(NC(=O)c2csnn2)c1,inactive: 3.47%,–
CN1CCS/C1=C\C=C1/SC(=S)N(CC(=O)O)C1=O,inactive: -4.57%,–

Structure (SMILES),growth rescue (activation),Potency
CCCCN(CCCC)Cc1ccc(C(=O)NNC(=O)Nc2ccc(F)cc2)o1,inactive: 1.76%,–
COc1ccc(C(O)c2ncc(-c3cccc(OC)c3)[nH]2)cc1 (stereo not drawn),inactive: 11.7%,–
Fc1ccccc1NC(=S)N1CCN(Cc2ccccc2)CC1,inactive: 4.66%,–
CCOC(=O)N1CCN(C(=S)NC(=O)c2cccc(OC)c2)CC1,inactive: -20.1%,–
COC(=O)c1ccc(CN2CCC(n3nccc3NC(=O)C3CCCC3)CC2)cc1,inactive: 8.67%,–
CC(=O)c1cccc(OCC(O)CNCC2COc3ccccc3O2)c1 (stereo not drawn),inactive: 9.66%,–
CCc1nc2ccc(C(=O)N(C)Cc3ccco3)cn2c1N(CC)C(=O)NCCc1ccccc1,inactive: 0.0917%,–
COc1ccc2oc(=O)c(C(=O)Nc3cccc(C)c3)cc2c1,inactive: -0.459%,–
Cc1cnc(C(=O)OCc2cc(=O)n3c(C)cccc3n2)cn1,inactive: 6.53%,–
COC(=O)c1nc2nc(C)cc(=O)n2[nH]1,inactive: 18.2%,–
CC1CN(c2ccc([N+](=O)[O-])cc2C#N)CC(C)O1 (stereo not drawn),inactive: -1.46%,–
COc1ccc(CN2CCNC(=O)C2CC(=O)NCc2cccc(C)n2)c(OC)c1 (stereo not drawn),inactive: -5.45%,–
O=C(N1CCCC1)C(F)(F)Oc1ccc(F)cc1,inactive: 13.7%,–
CCCNC(=O)c1ccc(C)c(NC(=O)C2=C(C)OCCS2)c1,inactive: 3.52%,–
O=C(NCCCN1CCOCC1)/C(=C/c1ccco1)NC(=O)c1ccccc1,inactive: -2.21%,–
Cc1ccc(NC(=O)COC(=O)C2C3CC4OC(=O)C2C4C3)cc1Cl (stereo not drawn),inactive: 6.86%,–
O=C(CC(=O)c1ccccc1)Nc1cccnc1,inactive: 1.36%,–
O=C(OCc1ccc(F)cc1)c1ccc2c(c1)-c1ccccc1C2=O,inactive: 13.6%,–
COc1ccc(C=C2C=C(C(C)(C)C)C(=O)C(C(C)(C)C)=C2)cc1OC,inactive: 11.3%,–
O=C(CN1C(=O)c2ccccc2S1(=O)=O)N1CCCCC1,inactive: -19%,–
CCN1CCN(C(=S)NC(C)c2ccccc2)CC1 (stereo not drawn),inactive: 5.65%,–
CCC(=O)N1CCc2cc(Br)cc(S(=O)(=O)N3CCCC(C(=O)NC(C)(C)C)C3)c21 (stereo not drawn),inactive: 10.1%,–
NC(=S)N/N=C/c1ccc(-c2ccc(Cl)c(Cl)c2)o1,–,active: 11.2 µM

Structure (SMILES),growth rescue (activation),Potency
Cc1[nH]nc2c1C(c1ccc(N(C)C)cc1)C1=C(CC(C)(C)CC1=O)N2 (stereo not drawn),inactive: 0.422%,–
O=C(CSc1ccc([N+](=O)[O-])cn1)Nc1ccc2[nH]c(=O)[nH]c2c1,inactive: 10.2%,–
Cc1nc2nc[nH]n2c(=O)c1NS(=O)(=O)c1ccc(C(C)(C)C)cc1,inactive: -16.3%,–
NC(=O)c1cc(S(=O)(=O)Nc2cccc(Cl)c2)cs1,inactive: 3.2%,–
CCc1ccc(Sc2cc(C(=O)NCCN3CCOCC3)c3ccccc3n2)cc1,inactive: -15%,–
COc1ccc(N2CCN(c3ccc(S(=O)(=O)N(C(C)C)C(C)C)cn3)CC2)cc1,inactive: -7.7%,–
O=C(O)CSc1nnc(-c2ccc(Cl)cc2Cl)n1-c1ccccc1,inactive: 2.83%,–
CCn1cc(C(=O)O)c(=O)c2cnc(N3CCN(C(=S)NC(=O)c4ccc(Cl)cc4Cl)CC3)nc21,inactive: -25.6%,–
CCNNC(=O)C(O)(c1cccc(C)c1)c1cccc(C)c1,inactive: 27.1%,–
O=C(O)C/C(=C\c1cc(Br)cs1)c1nc2ccccc2o1,inactive: -81.5%,–
Cc1cccc(C(=O)OCC(=O)NC23CC4CC(CC(C4)C2)C3)c1O,inactive: -38.3%,–
O=C(CCc1nnc(CCCCc2ccccc2)o1)NCc1cccc(F)c1,inactive: 7.83%,–
Cc1ccc(NC(=O)C2C3C=CC4(O3)C2C(=O)N(CCCN2CCCCC2)C4C(=O)NC2CCCCC2)cc1Cl (stereo not drawn),inactive: 3.78%,–
CC(C)(O)C#Cc1ccc(C(=O)NCCc2ccc(S(N)(=O)=O)cc2)cc1,inactive: 13.5%,–
C/C(CCc1oc2ccc(Br)cc2c1-c1ccc(C)o1)=N/O,inactive: 25.4%,–
C=C[C@]12CC[C@H](OC(C)=O)CC1=CCC1C2CC[C@@]2(C)C1CCC21OCCO1 (stereo partly drawn),inactive: 15.6%,–
COc1ccc(C(O)c2ncc(-c3ccccc3Cl)[nH]2)cc1 (stereo not drawn),inactive: 3.49%,–
CCN(CC)c1ccc([N+](=O)[O-])cc1C(=O)N1CCOCC1,inactive: 7.65%,–
COc1cccc(CN(C)CC(=O)NCc2ccccc2Cl)c1,inactive: 10.6%,–
COc1ccc(CCNc2nc(-c3sc(N)nc3C)cs2)cc1OC,inactive: 16.7%,–
OC(c1ccc(-c2ccccc2)cc1)c1ncc(-c2ccccc2)[nH]1 (stereo not drawn),inactive: 3.44%,–
Cc1ccc(NC(=O)C2CCN(S(=O)(=O)c3c(C)noc3/C=C/c3ccco3)CC2)nc1,inactive: -1.61%,–
